# Results published in the supplement of paper PMC4604168 (melanoma cell lines).
# This is one part of the list. Repeats are few or missing, and single values can be far off.
# Key:
# Test in all cases: cell count relative to DMSO control; melanoma cells; higher = more viable cells
# Details in all cases: library dose: low library concentration; 72 h
# WM115 = test system: WM115
# WM1716 = test system: WM1716
# WM1745 = test system: WM1745
# WM3526 = test system: WM3526
# WM3619 = test system: WM3619
# WM451Lu = test system: WM451Lu
# 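Also: cell number obtained by counting DAPI-stained nuclei in high-throughput microscope images with image analysis software, screen run in 1,536-well plates.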
Compound,cell count (WM115),cell count (WM1716),cell count (WM1745),cell count (WM3526),cell count (WM3619),cell count (WM451Lu)
"CO[C@H]1C[C@@H]2CC[C@@H](C)[C@@](O)(O2)C(=O)C(=O)N2CCCC[C@H]2C(=O)O[C@H]([C@H](C)C[C@@H]2CC[C@@H](OCCO)[C@H](OC)C2)CC(=O)[C@H](C)/C=C(\C)[C@@H](O)[C@@H](OC)C(=O)[C@H](C)C[C@H](C)/C=C/C=C/C=C/1C [everolimus] + O=C(Nc1ccccc1)c1cc([N+](=O)[O-])ccc1Cl [GW9662] (first compound 0.02 µM, partner dose 2 µM)",90.8%,66.5%,82.9%,68.2%,58.5%,82.8%
"Nc1ccn([C@@H]2O[C@H](CO)[C@@H](O)C2(F)F)c(=O)n1 [gemcitabine] + OCCn1cc(-c2cnc3nnn(Cc4ccc5ncccc5c4)c3n2)cn1 [PF04217903] (first compound 0.0004 µM, partner dose 1 µM)",86.9%,90%,52.4%,81.2%,65.7%,76%
"CC(=O)O[C@@]12CO[C@@H]1C[C@H](O)[C@@]1(C)C(=O)[C@H](O)C3=C(C)[C@@H](OC(=O)[C@H](O)[C@@H](NC(=O)OC(C)(C)C)c4ccccc4)C[C@@](O)([C@@H](OC(=O)c4ccccc4)[C@H]21)C3(C)C [Docetaxel] + NCC(=O)Nc1ccc(-n2nc(C(F)(F)F)cc2-c2ccc3c(ccc4ccccc43)c2)cc1 [OSU03012] (first compound 0.0001 µM, partner dose 1 µM)",60.5%,41.9%,60.2%,46.7%,69.6%,53.3%
"Nc1nc(F)nc2c1ncn2[C@@H]1O[C@H](CO)[C@@H](O)[C@@H]1O [fludarabine] + Cc1ccc(NC(=O)c2cccc(N(C)C)c2)cc1NC(=O)c1ccc(O)cc1 [ZM336372] (first compound 0.2 µM, partner dose 2 µM)",92.6%,114%,99%,27.8%,104%,43.2%
"CC(=O)c1c(C)c2cnc(Nc3ccc(N4CCNCC4)cn3)nc2n(C2CCCC2)c1=O [palbociclib] + CC(C)(C)c1cnc(CSc2cnc(NC(=O)C3CCNCC3)s2)o1 [SNS-032] (first compound 0.04 µM, partner dose 0.01 µM)",82.9%,63.9%,73.7%,79.4%,65.9%,104%
"Nc1nc(F)nc2c1ncn2[C@@H]1O[C@H](CO)[C@@H](O)[C@@H]1O [fludarabine] + O=C(CCCCCCC(=O)Nc1ccccc1)NO [vorinostat] (first compound 0.2 µM, partner dose 0.08 µM)",93.2%,118%,96.7%,22.7%,89.5%,43.6%
"Nc1ncn([C@H]2C[C@H](O)[C@@H](CO)O2)c(=O)n1 [decitabine] + COc1ccc(-c2ccc3c(N4CCOCC4)nc(N4C[C@@H](C)O[C@@H](C)C4)nc3n2)cc1CO [KU0063794] (first compound 0.1 µM, partner dose 0.02 µM)",92.3%,77.6%,83.8%,92.4%,90.4%,76.1%
"CC(=O)O[C@@]12CO[C@@H]1C[C@H](O)[C@@]1(C)C(=O)[C@H](O)C3=C(C)[C@@H](OC(=O)[C@H](O)[C@@H](NC(=O)OC(C)(C)C)c4ccccc4)C[C@@](O)([C@@H](OC(=O)c4ccccc4)[C@H]21)C3(C)C [Docetaxel] + COc1cc2c(Oc3ccc4[nH]c(C)cc4c3F)ncnc2cc1OCCCN1CCCC1 [cediranib] (first compound 0.0001 µM, partner dose 0.4 µM)",65.7%,36%,47.2%,52.6%,64.3%,54.6%
"CC(=O)c1c(C)c2cnc(Nc3ccc(N4CCNCC4)cn3)nc2n(C2CCCC2)c1=O [palbociclib] + C[C@@H]1CCN(C(=O)CC#N)C[C@@H]1N(C)c1ncnc2[nH]ccc12 [CP690550] (first compound 0.04 µM, partner dose 1 µM)",89.2%,55.7%,76.1%,58.1%,62.9%,75.7%
"Nc1nc(F)nc2c1ncn2[C@@H]1O[C@H](CO)[C@@H](O)[C@@H]1O [fludarabine] + COc1cc2c(Oc3ccc4[nH]c(C)cc4c3F)ncnc2cc1OCCCN1CCCC1 [cediranib] (first compound 0.2 µM, partner dose 0.4 µM)",102%,106%,95.7%,32.4%,111%,61.7%
"CC(=O)O[C@@]12CO[C@@H]1C[C@H](O)[C@@]1(C)C(=O)[C@H](O)C3=C(C)[C@@H](OC(=O)[C@H](O)[C@@H](NC(=O)OC(C)(C)C)c4ccccc4)C[C@@](O)([C@@H](OC(=O)c4ccccc4)[C@H]21)C3(C)C [Docetaxel] + C#Cc1cccc(Nc2ncnc3cc(OCCOC)c(OCCOC)cc23)c1 [erlotinib] (first compound 0.0001 µM, partner dose 0.8 µM)",49.1%,38%,36%,43.3%,64.8%,58.5%
"Nc1ncn([C@H]2C[C@H](O)[C@@H](CO)O2)c(=O)n1 [decitabine] + NC(=O)Nc1cc(-c2cccc(F)c2)sc1C(=O)N[C@H]1CCCNC1 [AZD7762] (first compound 0.1 µM, partner dose 0.02 µM)",71.6%,74.2%,89.5%,89.4%,60.2%,89.6%
"Nc1ccn([C@@H]2O[C@H](CO)[C@@H](O)C2(F)F)c(=O)n1 [gemcitabine] + O=C(Nc1ccccc1)c1cc([N+](=O)[O-])ccc1Cl [GW9662] (first compound 0.0004 µM, partner dose 2 µM)",84%,101%,75.3%,107%,72%,110%
"Nc1nc(F)nc2c1ncn2[C@@H]1O[C@H](CO)[C@@H](O)[C@@H]1O [fludarabine] + C#Cc1cccc(Nc2ncnc3cc(OCCOC)c(OCCOC)cc23)c1 [erlotinib] (first compound 0.2 µM, partner dose 0.8 µM)",88.1%,81.5%,90.9%,27.8%,114%,41.2%
"Nc1ccn([C@@H]2O[C@H](CO)[C@@H](O)C2(F)F)c(=O)n1 [gemcitabine] + Nc1cccc2c1CN(C1CCC(=O)NC1=O)C2=O [lenalidomide] (first compound 0.0004 µM, partner dose 1 µM)",89.4%,85.9%,69.4%,84.2%,64.4%,117%
"Nc1nc(F)nc2c1ncn2[C@@H]1O[C@H](CO)[C@@H](O)[C@@H]1O [fludarabine] + C[C@]1(c2nc3c(C(N)=O)cccc3[nH]2)CCCN1 [Veliparib] (first compound 0.2 µM, partner dose 1.4 µM)",90.4%,90.3%,92.4%,29%,91.8%,64.7%
"CO[C@H]1C[C@@H]2CC[C@@H](C)[C@@](O)(O2)C(=O)C(=O)N2CCCC[C@H]2C(=O)O[C@H]([C@H](C)C[C@@H]2CC[C@@H](OCCO)[C@H](OC)C2)CC(=O)[C@H](C)/C=C(\C)[C@@H](O)[C@@H](OC)C(=O)[C@H](C)C[C@H](C)/C=C/C=C/C=C/1C [everolimus] + C=CCn1c(=O)c2cnc(Nc3ccc(N4CCN(C)CC4)cc3)nc2n1-c1cccc(C(C)(C)O)n1 [MK1775] (first compound 0.02 µM, partner dose 0.02 µM)",61.2%,70.3%,70.7%,61.1%,51.4%,92.8%
"CC(=O)O[C@@]12CO[C@@H]1C[C@H](O)[C@@]1(C)C(=O)[C@H](O)C3=C(C)[C@@H](OC(=O)[C@H](O)[C@@H](NC(=O)OC(C)(C)C)c4ccccc4)C[C@@](O)([C@@H](OC(=O)c4ccccc4)[C@H]21)C3(C)C [Docetaxel] + CCN(CC)CCCCNc1ncc2cc(-c3cc(OC)cc(OC)c3)c(NC(=O)NC(C)(C)C)nc2n1 [PD173074] (first compound 0.0001 µM, partner dose 0.1 µM)",66.7%,44.4%,52.8%,45%,79.5%,58.2%
